Measurements reported in the supplement of paper PMC4967469.
IC50 is the fitted dose that halves viability relative to control wells, and lower means more sensitive; where the fit passes the top or lowest dose, that dose stands as a limit. AUC sums up the same curve from the lowest dose to the 256-fold higher top dose; it is 1 without any effect and falls as sensitivity rises. For part of these data: A top dose marked as inferred is not printed in the source and was worked back from the curve model.

What was measured:
Assay in all cases: Viability of human cancer cell lines after 72 h of drug (GDSC screen)
I-BET-762 = compound: CCNC(=O)C[C@@H]1N=C(c2ccc(Cl)cc2)c2cc(OC)ccc2-n2c(C)nnc21 [I-BET-762]; conditions: top dose 20 µM; top dose inferred
Description: (§1)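 Human cancer cell lines in 384-well plates, medium with 10% serum, drug for 72 h over a 256-fold dose range (nine 2-fold or five 4-fold steps up to the top dose). Adherent lines were fixed and stained with the nucleic acid dye Syto60, suspension lines read with resazurin; signal relative to control wells, capped at 0 and 100%. One two-parameter sigmoid per drug and line, fitted in a mixed model over all curves with the slope shared within a line.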

AV-951 = compound: COc1cc2nccc(Oc3ccc(NC(=O)Nc4cc(C)on4)c(Cl)c3)c2cc1OC [AV-951]; conditions: top dose 0.128 µM; top dose inferred
Description: as §1

MS-275 = compound: Nc1ccccc1NC(=O)c1ccc(CNC(=O)OCc2cccnc2)cc1 [MS-275]; conditions: top dose 5 µM; top dose inferred
Description: as §1

PF-4708671 = compound: CCc1cncnc1N1CCN(Cc2nc3ccc(C(F)(F)F)cc3[nH]2)CC1 [PF-4708671]; conditions: top dose 10 µM; top dose inferred
Description: as §1

Trametinib = compound: CC(=O)Nc1cccc(-n2c(=O)n(C3CC3)c(=O)c3c(Nc4ccc(I)cc4F)n(C)c(=O)c(C)c32)c1 [Trametinib]; conditions: top dose 1 µM
Description: as §1

HG-6-64-1 = compound: CCN1CCN(Cc2ccc(NC(=O)c3ccc(C)c(/C=C/c4cnc5[nH]ccc5c4OC)c3)cc2C(F)(F)F)CC1 [HG-6-64-1]; conditions: top dose 5.12 µM; top dose inferred
Description: as §1

KIN001-244 = compound: O=C(NC(COc1ccc2[nH]c(=O)[nH]c2c1)c1ccccc1)c1cccn(Cc2ccc(F)c(F)c2)c1=O [KIN001-244]; conditions: top dose 20 µM; top dose inferred
Description: as §1

Cell Line	AUC (I-BET-762)	IC50 (I-BET-762) [µM]	AUC (AV-951)	IC50 (AV-951) [µM]	AUC (MS-275)	IC50 (MS-275) [µM]	AUC (PF-4708671)	IC50 (PF-4708671) [µM]	AUC (Trametinib)	IC50 (Trametinib) [µM]	AUC (HG-6-64-1)	IC50 (HG-6-64-1) [µM]	AUC (KIN001-244)	IC50 (KIN001-244) [µM]
NCI-H847 (small cell lung carcinoma, adherent)	0.685	3.66	0.976	> 0.128	0.688	0.932	0.988	> 10	0.992	> 1	0.919	> 5.12	0.794	7.33
NCI-H1092 (small cell lung carcinoma, suspension)	0.927	> 20	0.972	> 0.128	0.789	2.23	0.972	> 10	0.982	> 1	0.99	> 5.12	0.864	17.7
NCI-H1155 (large cell lung carcinoma, suspension)	0.867	12.9	0.987	> 0.128	0.886	3.82	0.952	> 10	0.983	> 1	0.993	> 5.12	0.946	> 20
NCI-H1304 (small cell lung carcinoma, suspension)	0.985	> 20	0.988	> 0.128	0.831	3.52	0.947	> 10	0.986	> 1	0.978	> 5.12	0.987	> 20
NCI-H1355 (lung adenocarcinoma, adherent)	0.978	> 20	0.977	> 0.128	0.749	2.29	0.918	> 10	0.513	0.0687	0.745	2.26	0.971	> 20
NCI-H1395 (lung adenocarcinoma, adherent)	0.978	> 20	0.982	> 0.128	0.777	2.72	0.946	> 10	0.837	> 1	0.973	> 5.12	0.903	> 20
NCI-H1417 (small cell lung carcinoma, suspension)	0.906	> 20	0.974	> 0.128	0.365	0.123	0.847	9.62	0.308	0.0162	0.982	> 5.12	0.881	> 20
NCI-H1436 (small cell lung carcinoma, suspension)	0.983	> 20	0.983	> 0.128	0.861	> 5	0.966	> 10	0.968	> 1	0.849	4.68	0.91	> 20
NCI-H1581 (large cell lung carcinoma, semi-adherent)	0.989	> 20	0.98	> 0.128	0.915	> 5	0.98	> 10	0.9	> 1	0.896	> 5.12	0.913	> 20
NCI-H1648 (lung adenocarcinoma, adherent)	0.949	> 20	0.983	> 0.128	0.84	3.74	0.919	> 10	0.891	> 1	0.893	> 5.12	0.9	> 20
NCI-H1666 (lung adenocarcinoma, semi-adherent)	0.93	> 20	0.987	> 0.128	0.932	> 5	0.974	> 10	0.166	0.00529	0.976	> 5.12	0.973	> 20
NCI-H1694 (small cell lung carcinoma, suspension)	0.908	> 20	0.983	> 0.128	0.889	> 5	0.983	> 10	0.986	> 1	0.977	> 5.12	0.883	> 20
NCI-H1770 (non-small cell lung carcinoma, suspension)	0.933	> 20	0.992	> 0.128	0.947	> 5	0.977	> 10	0.981	> 1	0.776	1.79	0.937	> 20
NCI-H1836 (small cell lung carcinoma, suspension)	0.904	> 20	0.988	> 0.128	0.889	> 5	0.988	> 10	0.968	> 1	0.893	> 5.12	0.985	> 20
NCI-H1838 (lung adenocarcinoma, adherent)	0.978	> 20	0.986	> 0.128	0.982	> 5	0.982	> 10	0.892	> 1	0.961	> 5.12	0.948	> 20
NCI-H1869 (lung squamous cell carcinoma, adherent)	0.96	> 20	0.985	> 0.128	0.797	2.72	0.977	> 10	0.668	0.195	0.879	> 5.12	0.881	> 20
NCI-H1876 (small cell lung carcinoma, adherent)	0.879	> 20	0.987	> 0.128	0.668	0.923	0.912	> 10	0.978	> 1	0.987	> 5.12	0.939	> 20
NCI-H1975 (lung adenocarcinoma, adherent)	0.845	17.7	0.975	> 0.128	0.377	0.136	0.968	> 10	0.382	0.0281	0.526	0.381	0.917	> 20
